Laboratory results from a collection of fitness landscapes (doi:10.1038/s41467-024-54723-y).
The full ranking holds about 18,000 sequences; the median of “TetR repression strength (sort-seq, GFP reporter)” is about 0.23, and the highest 2% start at about 0.68. Some of the results follow.

target: TetR (class B, Tn10) (UniProt P04483); test: TetR repression strength (sort-seq, GFP reporter) (relative to tetO2 = 1); higher = stronger repression; settings: E. coli
Procedure, shortened: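 In LB with 50 µg/mL chloramphenicol, E. coli SIG10-MAX holding a low-copy library with eight randomized operator positions between a constitutive promoter and sfGFP, plus constitutive TetR, grew for 5 h at 37 °C. FACS then sorted 10^6 cells into 13 fluorescence bins for Illumina sequencing of each bin. Repression strength equals the top bin index plus one less the read-weighted mean bin, normalized to the unaltered operator. Values from three independent transformations were averaged when reads were ≥30 in every replicate and the CV was ≤0.5.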

Sequence of UniProt P04483 (P04483 whole entry): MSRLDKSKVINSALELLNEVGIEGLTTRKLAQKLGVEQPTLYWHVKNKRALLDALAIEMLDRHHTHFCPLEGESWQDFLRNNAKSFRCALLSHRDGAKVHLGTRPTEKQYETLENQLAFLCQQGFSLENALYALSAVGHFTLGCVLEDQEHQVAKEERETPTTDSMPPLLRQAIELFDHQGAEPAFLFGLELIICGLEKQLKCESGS

Row | Sequence | TetR repression strength
1 | TCCCGTGTAGTGTAAGAGA | 0.196
2 | TCCCAGAAAGTAACCGAGA | 0.466
3 | TCCCCTGCAGTACAAGAGA | 0.345
4 | TCCCTATCAGTCATAGAGA | 0.924
5 | TCCCGTATAGTGGAAGAGA | 0.104
6 | TCCCCGAAAGTGGCAGAGA | 0.118
7 | TCCCGGCTAGTTCGTGAGA | 0.327
8 | TCCCTTGGAGTCGGCGAGA | 0.0727
9 | TCCCGACGAGTGGAGGAGA | 0.206
10 | TCCCTATCAGTCCACGAGA | 0.322
11 | TCCCTTCTAGTGTCCGAGA | 0.426
12 | TCCCTTGGAGTAGCAGAGA | 0.173
13 | TCCCGTGTAGTCGGTGAGA | 0.331
14 | TCCCTGTAAGTAACTGAGA | 0.334
15 | TCCCCATAAGTAGCGGAGA | 0.0461
16 | TCCCGGCGAGTTCCGGAGA | 0.142
17 | TCCCGCCCAGTGGATGAGA | 0.267
18 | TCCCAAAGAGTACCAGAGA | 0.169
19 | TCCCATTCAGTAGTTGAGA | 0.503
20 | TCCCAGTGAGTTGCCGAGA | 0.212
21 | TCCCGTGGAGTTACAGAGA | 0.141
22 | TCCCTCAGAGTAACTGAGA | 0.313
23 | TCCCATTGAGTTTCGGAGA | 0.15
24 | TCCCAACAAGTTTTAGAGA | 0.304
25 | TCCCTCAGAGTGTTCGAGA | 0.159
26 | TCCCTATGAGTCGGGGAGA | 0.292

Row | Sequence | TetR repression strength
27 | TCCCTTCCAGTTTAGGAGA | 0.383
28 | TCCCCGCCAGTCTCGGAGA | 0.167
29 | TCCCAGGCAGTGGAAGAGA | 0.285
30 | TCCCCTCGAGTGAGAGAGA | 0.148
31 | TCCCGTCAAGTATAGGAGA | 0.218
32 | TCCCCCAAAGTGACGGAGA | 0.104
33 | TCCCTGGGAGTATGGGAGA | 0.317
34 | TCCCGTGCAGTATCGGAGA | 0.104
35 | TCCCACGGAGTAGGCGAGA | 0.0624
36 | TCCCGCATAGTTCTAGAGA | 0.566
37 | TCCCGGCCAGTGCCTGAGA | 0.412
38 | TCCCCGAAAGTCTCGGAGA | 0.17
39 | TCCCGACAAGTTGCAGAGA | 0.535
40 | TCCCATATAGTGGAAGAGA | 0.281
41 | TCCCACCGAGTTGGGGAGA | 0.297
42 | TCCCTTATAGTTCCTGAGA | 0.355
43 | TCCCAATCAGTTCCGGAGA | 0.363
44 | TCCCACTCAGTTTTTGAGA | 0.368
45 | TCCCGGGGAGTTCTCGAGA | 0.531
46 | TCCCAGTCAGTCACTGAGA | 0.104
47 | TCCCGAGGAGTGCTGGAGA | 0.432
48 | TCCCTGATAGTGTGGGAGA | 0.24
49 | TCCCAATGAGTGGTAGAGA | 0.192
50 | TCCCATTCAGTCATTGAGA | 0.561
51 | TCCCAGTTAGTCTTTGAGA | 0.334
52 | TCCCGCAGAGTGCGTGAGA | 0.145

Row | Sequence | TetR repression strength
53 | TCCCTTAGAGTACTGGAGA | 0.358
54 | TCCCAGATAGTTCGTGAGA | 0.185
55 | TCCCAGTAAGTGGTCGAGA | 0.172
56 | TCCCGTTGAGTGGTAGAGA | 0.222
57 | TCCCGGTTAGTCTTAGAGA | 0.023
58 | TCCCGTATAGTCGATGAGA | 0.225
59 | TCCCAGGCAGTTGAGGAGA | 0.216
60 | TCCCCTAGAGTTGAGGAGA | 0.239
61 | TCCCACAAAGTTTGAGAGA | 0.134
62 | TCCCTTCCAGTGCTTGAGA | 0.316
63 | TCCCTCCCAGTGGAGGAGA | 0.408
64 | TCCCACGTAGTCGCGGAGA | 0.0851
65 | TCCCAGTAAGTCCAGGAGA | 0.249
66 | TCCCTGATAGTAGACGAGA | 0.0214
67 | TCCCATCCAGTTTACGAGA | 0.406
68 | TCCCTGATAGTCAGGGAGA | 0.2
69 | TCCCTCCGAGTTGAAGAGA | 0.183
70 | TCCCCAGGAGTTTGAGAGA | 0.232
71 | TCCCAGGAAGTGGTAGAGA | 0.0816
72 | TCCCTTGTAGTTGGAGAGA | 0.0797
73 | TCCCCTGGAGTGGTTGAGA | 0.242
74 | TCCCTTAGAGTCAGGGAGA | 0.163
75 | TCCCCATTAGTCGATGAGA | 0.513
76 | TCCCGGTTAGTAAGGGAGA | 0.247
77 | TCCCACGGAGTATAAGAGA | 0.314
78 | TCCCTTATAGTACCTGAGA | 0.196

Row | Sequence | TetR repression strength
79 | TCCCCCACAGTTACTGAGA | 0.0281
80 | TCCCAGGGAGTGTTGGAGA | 0.256
81 | TCCCGGAAAGTAGGCGAGA | 0.0444
82 | TCCCTAGAAGTCGCTGAGA | 0.359
83 | TCCCTGGCAGTGTAGGAGA | 0.15
84 | TCCCTTACAGTGCGGGAGA | 0.155
85 | TCCCGAGTAGTATGGGAGA | 0.156
86 | TCCCCCGGAGTCTAGGAGA | 0.0199
87 | TCCCTAGAAGTTGCTGAGA | 0.226
88 | TCCCGTGAAGTTGTGGAGA | 0.202
89 | TCCCGTCTAGTCTACGAGA | 0.0447
90 | TCCCTGGAAGTAAGAGAGA | 0.42
91 | TCCCCGGCAGTACGCGAGA | 0.399
92 | TCCCAATAAGTCGGGGAGA | 0.208
93 | TCCCGATAAGTCGCGGAGA | 0.402
94 | TCCCGTAAAGTGACTGAGA | 0.214
95 | TCCCGACTAGTGTTAGAGA | 0.265
96 | TCCCGGGAAGTCGCGGAGA | 0.0975
97 | TCCCTTTGAGTATAGGAGA | 0.14
98 | TCCCTTCCAGTGGGAGAGA | 0.151
99 | TCCCGAGTAGTCGGCGAGA | 0.104
100 | TCCCCGTGAGTGCACGAGA | 0.174
101 | TCCCTGCCAGTTGACGAGA | 0.189
102 | TCCCAGACAGTGTCTGAGA | 0.132
